Test results as given in PubChem BioAssay AID485344 (National Center for Advancing Translational Sciences (NCATS), 2010).
Out of some 340,000 compounds screened, about 6,900 (2%) were called active. Rule as the data show it: active = inhibition above about 30%; inactive = below that, where a call was filed. Only a part is listed here, and it is no random draw. Entries without a call were filed so in the source.
Also: 0% is about no effect.

These compounds were tested against D(2) dopamine receptor (Homo sapiens) (UniProt P14416) (assay: HTS Assay for Allosteric Antagonists of the Human D2 Dopamine Receptor: Primary Screen for Antagonists). Conditions: HEK293 TREx D2 cells, calcium flux, dopamine EC80; at 10 µM; stronger effect = higher value.
Sequence of UniProt P14416 (P14416 whole entry, looked up): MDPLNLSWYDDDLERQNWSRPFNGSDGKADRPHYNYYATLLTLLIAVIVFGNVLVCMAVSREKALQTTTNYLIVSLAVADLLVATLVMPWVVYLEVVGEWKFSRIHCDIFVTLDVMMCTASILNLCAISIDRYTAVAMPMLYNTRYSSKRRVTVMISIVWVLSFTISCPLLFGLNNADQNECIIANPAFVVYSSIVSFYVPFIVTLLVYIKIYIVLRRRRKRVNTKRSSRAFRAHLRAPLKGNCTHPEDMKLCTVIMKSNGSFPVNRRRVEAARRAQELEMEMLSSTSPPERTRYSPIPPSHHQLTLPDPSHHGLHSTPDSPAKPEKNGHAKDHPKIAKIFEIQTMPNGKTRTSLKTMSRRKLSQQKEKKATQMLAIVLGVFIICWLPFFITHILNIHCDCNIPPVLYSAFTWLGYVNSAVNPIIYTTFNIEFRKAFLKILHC
Summary of the method: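 Cells plated overnight at 30 C with tetracycline; no-wash calcium dye, 30–90 min RT; 10 s baseline; compound pinned; 180 s read; EC80 dopamine added; another 180 s read.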
Work on COc1ccc(C(=O)n2nc(-c3ccco3)nc2NCc2cccs2)cc1OC yielded an inhibition of 1.89%. In the case of Cc1ccc(-c2nc3sc(CCNC(=O)c4ccc(C)c(C)c4)c(C)n3n2)cc1, the inhibition is reported as 10.6%. O=C(CN1C(=O)CCc2cc(S(=O)(=O)N3CCOCC3)ccc21)NCc1ccccc1 gave an inhibition of -6.72%. COc1ccc(-c2nc(CSc3nncn4c3cc3sccc34)c(C)o2)cc1OC gave an inhibition of 19.3%. For CCOc1ccc(C(C)NC(=S)NC2CCCCC2)cc1OCC (configuration not stated), the inhibition was active: 40.7%. For COc1ccc(C2=NS(=O)(=O)N(C)C(C(=O)Nc3ccc(OC)c(OC)c3)=C2)cc1, the inhibition was active: 55.7%. Compound CCNc1nc(OC)nc(Oc2ccc(=O)[nH]n2)n1 has an inhibition of 14.6%. In the case of CCOC(=O)c1sc2nc(SC)nc(-c3ccccc3)c2c1N, the inhibition is reported as active: 30.8%. CC(C)(C)c1ccc(S(=O)(=O)N2CCN(Cc3noc(CCC(=O)N4CCCCC4)n3)CC2)cc1 showed an inhibition of 6.37%. For CCOC(=O)C1CCCN(C2CCN(Cc3nc(Cc4ccccc4)no3)CC2)C1 (configuration not stated), the inhibition was active: 34.2%. For CN(C)S(=O)(=O)c1cccc(NC(=S)NNC(=O)c2cc3ccccc3cc2O)c1, the inhibition was active: 56.2%. Work on Cc1ccc(-c2c(C)n3c4c(=O)n(C)c(=O)n(C)c4nc3n2CCO)cc1 yielded an inhibition of 6.99%. For CC(=O)N1CCc2c(sc3c2c(=O)n(CCc2ccccc2)c(=O)n3Cc2ccc(Cl)cc2)C1, the inhibition was -0.696%. CCOC(=O)C1CCN(C(=O)Cn2c(=O)oc3cc(S(=O)(=O)N4CCC(C)CC4)ccc32)CC1 was tested, and the inhibition was -10.9%. CCOCCCNc1ncnc2c1cnn2-c1ccc(C)c(C)c1 showed an inhibition of -4.41%. Work on Cc1cc2c(cc1S(=O)(=O)N1CCCCC1)OCC(=O)N2 yielded an inhibition of -10.1%. Work on Cc1ccccc1NC(=O)CSc1nc2c(c(=O)n(C)c(=O)n2C)n1Cc1ccccc1F yielded an inhibition of 6.67%. For COc1ccc(Cl)cc1S(=O)(=O)n1cnc2ccccc21, the inhibition was active: 79%. For O=C(CCS(=O)(=O)c1cccs1)Nc1ccc(C(=O)Nc2ccccc2F)cc1, the inhibition was 9.94%. CCSc1ncc(Cl)c(C(=O)Nc2ccc(S(=O)(=O)N3CCCCC3)cc2)n1 gave an inhibition of -20.7%. Work on CCN(Cc1ccccc1)C(=O)CN(c1ccc(OC)cc1)S(=O)(=O)c1c(C)nn(C)c1C yielded an inhibition of -12.6%. In the case of CCc1ccc(NC(=O)c2ccc3[nH]c(C)c(C)c3c2)cc1, the inhibition is reported as 0.147%. CCCCN(CCCC)CCNC(=O)c1cn(CC)c2ccc(S(=O)(=O)N(C)C3CCCCC3)cc2c1=O was tested, and the inhibition was 4.99%. For CCOc1ccc(NC(=O)Cn2c(=O)n(-c3cccc(OC)c3)c(=O)c3c4c(sc32)CCCC4)cc1, the inhibition was -9.19%. Compound CCOC(=O)c1cccnc1SCC(=O)Nc1ccc(C)cc1C has an inhibition of 22.8%. CCCCc1ccc(NC(=O)c2ccc(=O)n(Cc3cccc(C)c3)c2)cc1 was tested, and the inhibition was -8.63%. Cc1ccc2c(c1)-c1c(cnc3cc(-c4ccccc4)nn13)CO2 showed an inhibition of 3.97%. For O=C(NCCc1ccccc1)c1nnc(Cc2cccc(F)c2)o1, the inhibition was 14.4%. With COc1ccc(-c2nc(C)c(CCNS(=O)(=O)c3cc(C)c(C)cc3C)s2)cc1 the inhibition was -19.4%. Compound CN(C)CCNC(=O)c1ccc2c(=O)n3c(nc2c1)CCCCC3 has an inhibition of 10%. Work on Cn1nnc2c(N3CCN(c4ccccc4Cl)CC3)ncnc21 yielded an inhibition of -5.32%. For COc1ccc(-c2nc(CN3CCC(C(=O)NCc4ccccc4)CC3)c(C)o2)cc1OC, the inhibition was -3.29%. In the case of COc1ccc(-c2c3c(=O)n(C)c(=O)n(C)c3c3c(C)nc4ccccc4n23)cc1, the inhibition is reported as -7.88%. In the case of Oc1ccc(N=Nc2ccccc2)cc1, the inhibition is reported as active: 33.2%. With Cc1ccc(-c2nnc(SCc3cccc(C#N)c3)o2)cc1 the inhibition was 6.4%. In the case of CCOC(=O)Cn1c(=O)n(-c2ccccc2OC)c2nc(-c3cccc(F)c3)nc(C(N)=O)c21, the inhibition is reported as 16.6%. With COc1cc2[nH]c(-c3ccc(C)cc3)cc(=O)c2cc1OC the inhibition was active: 83.9%. CCOC(=O)c1ccccc1NC(=O)N(C(C)C)C1CCN(C(C)=O)CC1 was tested, and the inhibition was 18.7%. COc1ccc(/C=N/NC(=O)c2ccc(Br)cc2)c(OC)c1 was tested, and the inhibition was active: 33.1%. For O=[N+]([O-])c1c(Nc2ccc(O)cc2)cc(Cl)c2nonc12, the inhibition was active: 37.5%. For CCCC[n+]1ccn(C2=C([O-])c3ccccc3C(=O)/C2=N\S(=O)(=O)c2ccc(Cl)cc2)c1, the inhibition was active: 33.7%. For CCOc1ccc(CNC(=O)C2CCCN(S(=O)(=O)c3ccc4c(ccn4C)c3)C2)cc1 (configuration not stated), the inhibition was 20.1%. With CCN(CC)c1cc2c(cc1F)c(=O)c(S(=O)(=O)c1ccc(OC)cc1)cn2CC the inhibition was -3.22%. In the case of COc1cccc(N2CCN(C(=O)CCc3c(C)nc4c(c3C)c(=O)n(C)c(=O)n4C)CC2)c1, the inhibition is reported as 9.28%. Cc1ccccc1-n1c(SCc2ccc(Cl)cc2)nc2[nH]ncc2c1=O was tested, and the inhibition was 8.1%. For CCC(C)NC(=O)c1ccc2c(c1)N(Cc1ccccc1)C(=O)c1ccccc1S2 (configuration not stated), the inhibition was -12.5%. CC(=O)Nc1ccc(S(=O)(=O)N2CCC(n3c(C(F)(F)F)nc4cccnc43)CC2)cc1 gave an inhibition of -2.66%. Cc1ccc(CCNC(=O)CCCn2nc(C)c3c(C)n(-c4ccccc4)nc3c2=O)cc1 showed an inhibition of -10.9%. CCOc1cccc2sc(N(CCN(C)C)C(=O)/C=C/c3cccs3)nc12 was tested, and the inhibition was active: 65.9%. Compound COc1ccc(CNC(=O)CSc2nc(-c3ccc(OC)cc3)cc(C(F)(F)F)n2)cc1 has an inhibition of -10.7%. For CCN1CCN(c2cc(N3CCc4ccccc4C3)c(F)cc2[N+](=O)[O-])CC1, the inhibition was active: 61.6%. For O=C(CCC(=O)c1cccs1)NCc1ccccc1, the inhibition was active: 34.9%. CC(C)Oc1ccc(CNC(=O)c2cc3ccccn3n2)cc1 gave an inhibition of 6.49%. Work on Cc1ccccc1C(=O)c1cccn1CC(=O)NCc1ccccc1 yielded an inhibition of -8.93%. For CCOc1ccc(CCNC(=O)Cn2nc(C)n3c(cc4occc43)c2=O)cc1OCC, the inhibition was 3.32%. In the case of c1ccc(N2CCN(C3CC4CCC3C4)CC2)cc1 (configuration not stated), the inhibition is reported as active: 86.6%. In the case of Cc1ccc(C)c(OCCn2c(-c3ccc(Cl)cc3)nc3ccccc3c2=O)c1C, the inhibition is reported as -2.45%. Compound Cc1ccc(-c2nc3c4ccccc4n(CC(=O)N4CCN(c5ccccc5F)CC4)c(=O)n3n2)cc1 has an inhibition of 11.2%. Cc1ccccc1CNC(=O)c1cnc2sc(N3CCOCC3)nn2c1=O showed an inhibition of 0.7%. Cc1ccc(-n2nnnc2CNC(=O)C(C)(C)C)cc1C showed an inhibition of -5.06%. In the case of COc1ccc2ccccc2c1/C=N/NC(=O)c1nnn(-c2nonc2N)c1C(C)C, the inhibition is reported as active: 34.7%. For Cc1cccc(Cn2c(C(C)(C)C)cc3cccnc32)c1, the inhibition was active: 44.8%.
